From the RNAGym collection of RNA variant scans (doi:10.1073/pnas.2313332121)
Variants at the floor of the assay are shown more often than the library holds them.

B1: TPR 5TU (parent)
chain: GGAUCUUCUCGAUCUAACAAAAAAGACAAAUCUGCCACAAAGCUUGAGAGCAUCUUCGGAUGCAGAGGCGGCAGCCUUCGGUGGCGCGAUAGCGCCAACGUUCUCAACUAUGACACGCAAAACGCGUGCUCCGUUGAAUGGAGUUUAUCAUG

Variants of: B1
Assay: polymerase ribozyme fitness, log enrichment relative to wild type (log ratio); higher = more active; in vitro selection for triplet polymerase activity
Outline: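 Each subunit of a heterodimeric triplet polymerase ribozyme was represented by a PCR-built, transcribed mutant library that underwent triplicate single-round in vitro selection with frozen incubation at −7 °C. Extended constructs were recovered by gel excision, streptavidin-bead capture and RT-PCR, and Illumina sequencing of input and output libraries kept genotypes with ≥10 input reads and ≥1 read per output. Fitness is the logarithm of genotype enrichment relative to wild-type enrichment, from inverse-variance-weighted replicate averages, with a logarithm base of 2.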

Variant | polymerase ribozyme fitness (log ratio)
GGCUCUUCUCGAUCUAACAAAAAAGACAAAUCUGCCACAAAGCGUGAGAGCAUCGACGGAUGCAGGGGCGGCAGCCUUCGGUGGCGCGAUAGCGCUUACAUUCUCAACUAUGACACGCAAAACGCGUGCUCCGUUGAAUGGAGUUUAACAUG [A3C U44G U55G U56A A66G C96U A97U G100A U148A] | ≤ -4.2
GGCUCUUCUCGAUCUAACAAAAAAGACAAAUCUGCCACAAAGCUUGAGAGCAUCUACGGAUGCAGAGGAGGCAGCCUUCGGUGGCGCGAUAGUGCCAACGUUCUCAACUAUGACACGCAAAACGCAUGCUCCGUUGAAGGGAGUUUAUCAUG [A3C U56A C69A C93U G126A U139G] | -2.53
GGCUCUUCUCGAUCUAACAAAAAAGACAAAUCUGCCACAAAGCUUGAGAGCAUCUGCGGAUGCAGAGGCGGCAGCCUUCGGUGGCGCGAUAGUGCCAACGUUCUCAACUAUGAGACGCAAAACGCGUGCUCCGAUGAAUGGAGUUUACCAUG [A3C U56G C93U C114G U134A U148C] | ≤ -4.2
GGCUCUUCUCGAUCUAACAAAAAAGACAAAUCUGCCACAAAGCUUGAGAGCAUCUUCGGAUGCAGAGGCGGCAGCCUUCGGUGGCGCGAAAGCGCCAACGUUCUCAACUAUGACACGCAAAACGCGUGCUCCGUUGAAUGGAGUUUAUCAUG [A3C U90A] | -4.17
GGCUCUUCUCGAUCUAACAAAAAAGACAAAUCUGCCACAAAGCUUGAGAGCAUCUUCGGAUGCAGAGGCGGCAGCCUUCGGUGGCGCGAUAGCGCCAACGGUCUUAACUAUGACACGCAAAACGCGUGCUCCGUUGACUGGAGUUUAUCAUG [A3C U101G C105U A138C] | -4.17
GGGUCUUCUCGCUCUAACAAAAAAGACAAAUCUGCCACGAAGCUUGAGAGCAUCUUCGGAUGCAGAGGCGGCAGCCUUCGGUGGCGCGAUAGCGCCUACGUUCUCAACUAUGACACGCAAAACGCGUGCUCCAUUGAAUGGACUUUAUCAUG [A3G A12C A39G A97U G133A G143C] | ≤ -4.2
GGGUCUUCUCGGUCUAACAAAAAAGACAGAUCUGCCAUAAACCUUGAGAGCAUCUUCGGAUGCAGAGGCGGCAGCCUUCGGUGGCUCGAUAGCGCCAACGUUCUCAACUAUGACACGCAAAACGCGUGCUCCGUUGACUGGAGUUUAUCAUG [A3G A12G A29G C38U G42C G86U A138C] | ≤ -4.2
GGGUCUUCUCGUUCUAACAUAAACGACAAAUCUGCCACAAAGCUUGAGAGCAUCUUCGGAUGCAGAGGCGGCAGCCUUCGGUGGAGCGAUAGUGCCAACGUUCUCAACUAUGACACGCAAAACGCGUGCUCCGUUGAAUGGAGUUUAUCAUG [A3G A12U A20U A24C C85A C93U] | ≤ -4.2
GGGUCUUCUCGAUCUCACAAAGAAGACAAAUCUGCCACAAAGCUUGAGAGCAUCUUCGGAUGCAGAGGCGGCGGCCUUCGGUGUCGCGAUAGCGCCAACGUUCUCAACUAUGACACGCAAAAUGCGUGCUCCGUUGAAUGGAGUUUAUCAUG [A3G A16C A22G A73G G84U C123U] | ≤ -4.2
GGGUCUUCUCGAUCUCACAAAAAAGACAAAUCUGCCACAAAGCUUGAGAGCAUCUUCGGAUGCAGUGGCGGCAGCCUUCGGGUGCGCGAUAGCGCCAACGUUCUCAACUAUGACACGCAAAACGCGUGCUUCGUUGAAUGGAGUUUAUCAUG [A3G A16C A66U U82G G83U C131U] | ≤ -4.2
GGGUCUUCUCGAUCUCACAAAAAAGACAAAUGUGCCACAAAGCUUGAGAGCAUCUUCGGAUGCAGAGGCGGCAGCCUUCGGUGACGCGAUAGCGCCAACGUUCUCAACUAUGACACGCAAAACGCGUGCUCCGUUGAAUGAAGUUUAUCAUG [A3G A16C C32G G84A G141A] | ≤ -4.2
GGGUCUUCUCGAUCUCACAAAAAAGACAAAUCUGCCACAAAGCUUGAGAACAUGUUCGGAUGCAGAGGCGGCAGCCUUCGGUGGCGCGAUAGCGCCAAGGUUCUCAACUAUGACACGCAAAACGCGUGCUCCGUUGAAUGGAGUUUAUCAUG [A3G A16C G50A C54G C99G] | ≤ -4.2
GGGUCUUCUCGAUCUUACAAAAAAGACAAAUCUGCCACGAAGCUUGAGAGCAUCUUCGGAUGCAGAGGCGGCAGUCUUCGGUGGCGCGAUAGCGCAAACGUUCUCAACUAUGACACGCAAAACGCGUGCUCCGUUGAAUGGACUUUAUCAUG [A3G A16U A39G C75U C96A G143C] | ≤ -4.2
GGGUCUUCUCGAUCUUACAAAAAAUACAAAUCUGCCACAAUGCUUAAGAGCAUCUUCGGAUGCAGAGGCGGCAGCCUUCGGGGGCGCGAUAGCGCCAACGUUCUCAACUAUGACACGCAAAACGCGUGCUCCGUUGAAUGGAGUUUAUCAUG [A3G A16U G25U A41U G46A U82G] | ≤ -4.2
GGGUCUUCUCGAUCUACCAAAAAAGACAAAUCUGCCACAAAGCUUGAGAGCAUCUUCGGAUGCAGAGGCGGCAGCCUUCAGUGGCGCUAUAGCGCUAACGUUCUCAACUAUGACACGCAAAACGCGUGCUCCGUUGAAUGGAGUUUAACAUG [A3G A17C G80A G88U C96U U148A] | ≤ -4.2
GGGUCUUCUCGAUCUACCAAAAAAGACAAAUCUGCCACAAAGCUUGAGAGCAUCUUCGGAUGCAGAGGCGGCAGCCUUCGGUGGCGCGAUAGCGCCAACGUUCUCAACUAUGACACGCAAAACGCGUGCUCCGUUGAAUGGACUUUAUCAUG [A3G A17C G143C] | -2.6
GGGUCUUCUCGAUCUAACACAAAAGACAAAUCUGCCACAAUGCUUGCGAGCAUCUUCGGAUGCAGAGGCGGCAGCCGUCGGUGGCGCGAUAGCGCCAACGUUCUCAACUAUGACACGCAAAACGCGUGCUCCGUUGAAAGGAGUUUAUCUUG [A3G A20C A41U A47C U77G U139A A150U] | ≤ -4.2
GGGUCUUCUCGAUCUAACACAAAAGACAAAUCUGCCACAAAGCUUGAGAGCAUCUUCGGAUGCACAGCCGGCAGCCUUCGGUGGCGCGAUAGCGCCAGCGUUCUCAACUAUGACACGCAAAACGCGUGCUCCGUUGAAUGGAGUUUAUUAUU [A3G A20C G65C G68C A98G C149U G152U] | ≤ -4.2
GGGUCUUCUCGAUCUAACAGAAAAGACAGAUCUGCCACAAAGCUUGAGAGCAUCUUCGGAUGCAGAGGCGGCAGCCUUUAAUGGCGCGAUAGCGCCAACGUUCUCAACUAUGACACGCAAAACGCGUGCUCCGUUGAAUCGAGUUUAUAAUG [A3G A20G A29G C79U G80A G81A G140C C149A] | ≤ -4.2
